# Assay results published in the supplement of paper PMC8728848.
# Some of the results follow.
# B1: PkBDPgamma (Plasmodium knowlesi) (protein)
# chain: SAINQIFLQNNVMDKCNDKRKRGERDWDCPTEKDVCIPDRRYQLCMMEITNLVDTDTHFHSDIIFRKSYSRRRLIYDVGGRGDLLLKKYNNVYSEDLCKDIKWSLQDFGDIIMGTDMEGIGYSLVVQNNLRSIFGTGTSAELDRKKWWNDHKKDIWKAMILSVKEKNRYSAWNCKEDVQIKVEPQIYRWIREWGRDYMSEFREQRRKLNEKCEDKLYYSTMLICTLPPCNNACKSYDEWITGKKKQWDVLSTKFSSVKKAQKIETENIARAYDILKQELNGFNEVTFENEINKRDKLYNYFCVCIVQEARKNTQENVKNVGSGVESKAPSSNPINEAVKSSSGEGKVQEDSAHRSVNEGEGKSSTNEADPGSQPGAAASGGGSGGGTGGGVDLAPQMLRELQETNAALQDVRELLRQQVKEITFLKNTVMECDACGGPLDRNLPPLAPLGPTGGWSHPQFEK
# How the values were obtained:
# Assay in all cases: glycan array binding signal (z-score within array); higher = stronger binding
# Details in all cases: glycan notation: IUPAC condensed, linker removed
# [1] = molecular target: GalNAc3S(b1-4)GlcNAc3S
# Outline: (§1)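 Negative Z-scores can be read as non-binding. The Z-score is calculated within each array and then averaged across arrays of one protein sequence at different concentrations or buffers and across linkers. Arrays, 3228 in all, were curated from the Consortium for Functional Glycomics database and kept only where the protein sequence was available.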
# [2] = molecular target: GalNAc3S(b1-4)[Fuc(a1-3)]GlcNAc
# Outline: as §1
# [3] = molecular target: GalNAc4S6S(b1-4)GlcNAc
# Outline: as §1
# [4] = molecular target: GalNAc6S(b1-4)GlcNAc
# Outline: as §1
# [5] = molecular target: Glc(a1-4)Glc
# Outline: as §1
# [6] = molecular target: Glc(a1-4)Glc(a1-4)Glc(a1-4)Glc
# Outline: as §1
# [7] = molecular target: Glc(a1-6)Glc(a1-6)Glc
# Outline: as §1
# [8] = molecular target: Glc(a1-6)Glc(a1-6)Glc(a1-6)Glc
# Outline: as §1
# [9] = molecular target: Glc(b1-4)Glc
# Outline: as §1
# [10] = molecular target: Glc(b1-6)Glc
# Outline: as §1
# [11] = molecular target: GlcA(b1-3)Gal
# Outline: as §1
# [12] = molecular target: GlcA(b1-3)GlcNAc
# Outline: as §1
# [13] = molecular target: GlcA(b1-6)Gal
# Outline: as §1
# [14] = molecular target: GlcA3S(b1-3)Gal(b1-4)GlcNAc(b1-2)Man
# Outline: as §1
# [15] = molecular target: GlcA3S(b1-3)Gal(b1-4)GlcNAc(b1-3)Gal(b1-4)Glc
# Outline: as §1
# [16] = molecular target: GlcNAc(a1-3)Gal(b1-4)GlcNAc
# Outline: as §1
# [17] = molecular target: GlcNAc(a1-4)Gal(b1-3)GlcNAc
# Outline: as §1
# [18] = molecular target: GlcNAc(a1-4)Gal(b1-4)GalNAc
# Outline: as §1
# [19] = molecular target: GlcNAc(a1-4)Gal(b1-4)GlcNAc
# Outline: as §1
# [20] = molecular target: GlcNAc(a1-4)Gal(b1-4)GlcNAc(b1-3)Gal(b1-4)Glc
# Outline: as §1
# [21] = molecular target: GlcNAc(a1-4)Gal(b1-4)GlcNAc(b1-3)Gal(b1-4)GlcNAc
# Outline: as §1
# [22] = molecular target: GlcNAc(a1-4)Gal(b1-4)GlcNAc(b1-3)Gal(b1-4)GlcNAc(b1-3)Gal(b1-4)GlcNAc
# Outline: as §1
# [23] = molecular target: GlcNAc(a1-4)Gal(b1-4)GlcNAc(b1-3)Gal(b1-4)[Fuc(a1-3)]GlcNAc(b1-3)Gal(b1-4)[Fuc(a1-3)]GlcNAc
# Outline: as §1
# [24] = molecular target: GlcNAc(a1-6)Gal(b1-4)GlcNAc
# Outline: as §1
# [25] = molecular target: GlcNAc(b1-2)Gal(b1-3)GalNAc
# Outline: as §1
# [26] = molecular target: GlcNAc(b1-2)Man(a1-3)[GlcNAc(b1-2)Man(a1-6)]Man(b1-4)GlcNAc(b1-4)GlcNAc
# Outline: as §1
# [27] = molecular target: GlcNAc(b1-2)Man(a1-3)[GlcNAc(b1-2)Man(a1-6)]Man(b1-4)GlcNAc(b1-4)[Fuc(a1-6)]GlcNAc
# Outline: as §1
# [28] = molecular target: GlcNAc(b1-2)Man(a1-3)[GlcNAc(b1-4)][GlcNAc(b1-2)Man(a1-6)]Man(b1-4)GlcNAc(b1-4)GlcNAc
# Outline: as §1
# [29] = molecular target: GlcNAc(b1-2)Man(a1-3)[GlcNAc(b1-4)][GlcNAc(b1-2)Man(a1-6)]Man(b1-4)GlcNAc(b1-4)[Fuc(a1-6)]GlcNAc
# Outline: as §1
# [30] = molecular target: GlcNAc(b1-2)[GlcNAc(b1-4)]Man(a1-3)[GlcNAc(b1-2)Man(a1-6)]Man(b1-4)GlcNAc(b1-4)GlcNAc
# Outline: as §1
# [31] = molecular target: GlcNAc(b1-2)[GlcNAc(b1-4)]Man(a1-3)[GlcNAc(b1-4)][GlcNAc(b1-2)Man(a1-6)]Man(b1-4)GlcNAc(b1-4)GlcNAc
# Outline: as §1
# [32] = molecular target: GlcNAc(b1-2)[GlcNAc(b1-4)]Man(a1-3)[GlcNAc(b1-4)][GlcNAc(b1-2)[GlcNAc(b1-6)]Man(a1-6)]Man(b1-4)GlcNAc(b1-4)GlcNAc
# Outline: as §1
# [33] = molecular target: GlcNAc(b1-2)[GlcNAc(b1-4)]Man(a1-3)[GlcNAc(b1-4)][GlcNAc(b1-2)[GlcNAc(b1-6)]Man(a1-6)]Man(b1-4)GlcNAc(b1-4)[Fuc(a1-6)]GlcNAc
# Outline: as §1
# [34] = molecular target: GlcNAc(b1-2)[GlcNAc(b1-6)]Man(a1-6)[GlcNAc(b1-2)Man(a1-3)]Man(b1-4)GlcNAc(b1-4)GlcNAc
# Outline: as §1
# [35] = molecular target: GlcNAc(b1-2)[GlcNAc(b1-6)]Man(a1-6)[GlcNAc(b1-2)Man(a1-3)]Man(b1-4)GlcNAc(b1-4)[Fuc(a1-6)]GlcNAc
# Outline: as §1
# [36] = molecular target: GlcNAc(b1-2)[GlcNAc(b1-6)]Man(a1-6)[GlcNAc(b1-4)][GlcNAc(b1-2)Man(a1-3)]Man(b1-4)GlcNAc(b1-4)GlcNAc
# Outline: as §1
# [37] = molecular target: GlcNAc(b1-3)Fuc
# Outline: as §1
# [38] = molecular target: GlcNAc(b1-3)Gal
# Outline: as §1
binder,measurement,setting,value
B1,glycan array binding signal (z-score),[1],-0.215
same,glycan array binding signal (z-score),[2],0.068
same,glycan array binding signal (z-score),[3],-0.478
same,glycan array binding signal (z-score),[4],0.267
same,glycan array binding signal (z-score),[5],0.205
same,glycan array binding signal (z-score),[6],-0.232
same,glycan array binding signal (z-score),[7],-0.504
same,glycan array binding signal (z-score),[8],0.897
same,glycan array binding signal (z-score),[9],0.621
same,glycan array binding signal (z-score),[10],0.045
same,glycan array binding signal (z-score),[11],-0.021
same,glycan array binding signal (z-score),[12],-0.473
same,glycan array binding signal (z-score),[13],-0.22
same,glycan array binding signal (z-score),[14],-0.251
same,glycan array binding signal (z-score),[15],-0.358
same,glycan array binding signal (z-score),[16],-0.102
same,glycan array binding signal (z-score),[17],-0.192
same,glycan array binding signal (z-score),[18],-0.178
same,glycan array binding signal (z-score),[19],-0.557
same,glycan array binding signal (z-score),[20],-0.217
same,glycan array binding signal (z-score),[21],-0.39
same,glycan array binding signal (z-score),[22],-0.159
same,glycan array binding signal (z-score),[23],0.193
same,glycan array binding signal (z-score),[24],-0.284
same,glycan array binding signal (z-score),[25],-0.401
same,glycan array binding signal (z-score),[26],-0.276
same,glycan array binding signal (z-score),[27],-0.068
same,glycan array binding signal (z-score),[28],0.306
same,glycan array binding signal (z-score),[29],-0.105
same,glycan array binding signal (z-score),[30],0.378
same,glycan array binding signal (z-score),[31],0.338
same,glycan array binding signal (z-score),[32],-0.395
same,glycan array binding signal (z-score),[33],-0.236
same,glycan array binding signal (z-score),[34],0.138
same,glycan array binding signal (z-score),[35],0.185
same,glycan array binding signal (z-score),[36],0.107
same,glycan array binding signal (z-score),[37],0.497
same,glycan array binding signal (z-score),[38],0.201
